No constants are given. Whether binding was seen depends on the method and setting. Binding seen in cells or lysates may run through a third protein. Some entries that bind do so weakly or less than the wild type. For some assays here: Where a sequence is shown, tags or fusion partners need not be part of it. Each block holds one molecule with its values, some of them ahead of it.
Experiments:
[1] = molecular target: VN-TASK-3 (mouse TASK-3 fused to the N-terminal half of split Venus) (mouse) (UniProt Q3LS21); experiment: split reporter; BiFC with split Venus (VN173/VC155) fusions co-transfected into COS-7 cells with DsRed-Mem; fixed with 4% paraformaldehyde the following day; Venus fluorescence by confocal microscopy
[2] = molecular target: endogenous TASK-3 in mouse dentate gyrus granule cells (mouse (endogenous in hippocampal DGGCs)) (UniProt Q3LS21); experiment: proximity ligation; Duolink PLA on frozen hippocampal sections of mice with antibodies to TASK-3 (rabbit) and TWIK-1 (goat); DGGCs infected with Ad-Sc shRNA or knock-down shRNA
[3] = molecular target: Flag-TASK-3 (Flag-tagged mouse TASK-3) (mouse) (UniProt Q3LS21); experiment: co-IP; HEK293T cells co-transfected with HA-TWIK-1 and Flag-TASK-3; RIPA lysate; immunoprecipitation with anti-FLAG antibody and Protein G agarose at 4 °C; blot with anti-HA

Chains of the proteins cited; added tags and fusions are not shown.
UniProt Q3LS21: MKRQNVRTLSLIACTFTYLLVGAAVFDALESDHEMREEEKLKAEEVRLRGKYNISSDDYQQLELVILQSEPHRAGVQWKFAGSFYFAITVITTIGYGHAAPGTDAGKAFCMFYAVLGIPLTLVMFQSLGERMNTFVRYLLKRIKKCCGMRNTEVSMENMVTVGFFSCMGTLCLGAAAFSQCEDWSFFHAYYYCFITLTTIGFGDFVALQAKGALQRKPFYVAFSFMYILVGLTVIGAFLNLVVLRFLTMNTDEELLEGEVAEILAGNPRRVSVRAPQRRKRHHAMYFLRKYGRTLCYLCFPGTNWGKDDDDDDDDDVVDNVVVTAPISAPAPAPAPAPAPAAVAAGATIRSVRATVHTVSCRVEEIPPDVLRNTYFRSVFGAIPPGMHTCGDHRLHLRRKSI

B1: TWIK-1-VC (mouse TWIK-1 fused to the C-terminal half of split Venus) (protein, UniProt O08581 1-336)
chain: MLQSLAGSSCVRLVERHRSAWCFGFLVLGYLLYLVFGAVVFSSVELPYEDLLRQELRKLKRRFLEEHECLSEPQLEQFLGRVLEASNYGVSVLSNASGNWNWDFTSALFFASTVLSTTGYGHTVPLSDGGKAFCIIYSVIGIPFTLLFLTAVVQRVTVHVTRRPVLYFHIRWGFSKQVVAIVHAVLLGFVTVSCFFFIPAAVFSVLEDDWNFLESFYFCFISLSTIGLGDYVPGEGYNQKFRELYKIGITCYLLLGLIAMLVVLETFCELHELKKFRKMFYVKKDKDEDLVHIMEHDQLSFSSVTEQVAGLKEEQKQSEPFVASQSPPYEDGSADH
binding [1]: binds

B3: HA-TWIK-1 (hemagglutinin-tagged mouse TWIK-1) (protein, UniProt O08581 1-336)
chain: B1 chain
binding [3]: binds

B4: GIRK1-VC (GIRK1 K+ channel fused to the C-terminal half of split Venus) (protein, UniProt P63250 1-501)
chain: MSALRRKFGDDYQVVTTSSSGSGLQPQGPGQGPQQQLVPKKKRQRFVDKNGRCNVQHGNLGSETSRYLSDLFTTLVDLKWRWNLFIFILTYTVAWLFMASMWWVIAYTRGDLNKAHVGNYTPCVANVYNFPSAFLFFIETEATIGYGYRYITDKCPEGIILFLFQSILGSIVDAFLIGCMFIKMSQPKKRAETLMFSEHAVISMRDGKLTLMFRVGNLRNSHMVSAQIRCKLLKSRQTPEGEFLPLDQLELDVGFSTGADQLFLVSPLTICHVIDAKSPFYDLSQRSMQTEQFEVVVILEGIVETTGMTCQARTSYTEDEVLWGHRFFPVISLEEGFFKVDYSQFHATFEVPTPPYSVKEQEEMLLMSSPLIAPAITNSKERHNSVECLDGLDDISTKLPSKLQKITGREDFPKKLLRMSSTTSEKAYSLGDLPMKLQRISSVPGNSEEKLVSKTTKMLSDPMSQSVADLPPKLQKMAGGPTRMEGNLPAKLRKMNSDRFT
binding [1]: no binding

Next, values leading:

binding [1]: binds
Molecule: VN-TASK-3 (mouse TASK-3 fused to the N-terminal half of split Venus) (from UniProt Q3LS21 1-402)

binding [2]: binds
B2: endogenous TWIK-1 in mouse dentate gyrus granule cells (protein, UniProt O08581 1-336)
chain: B1 chain

— publication PMC6230555
